“And” between values parts separate entries of the source, which are not always exact repeats. Equal values may be shown once. The whole screen tested about 420,000 compounds, of which about 64,000 (15%) were called active. Inconclusive means that the source gave no clear call. Such entries were picked first, then a sample of the others. Calls follow the shape of the dose curve; as a rule, active = well fitted inhibition curve with a large enough effect; inconclusive = small, poorly fitted or top-dose-only effect; inactive = flat fitted curve, though single readings scatter. Potencies of inconclusive entries are doubtful fits and often do not repeat.
Assay: qHTS for Inhibitors of human tyrosyl-DNA phosphodiesterase 1 (TDP1): qHTS in cells in absence of CPT; also: nearly all actives have a fitted effect of over 55% in size
Conditions: DT40 Tdp1-/- hTDP1 cells, no CPT, ATP luminescence, 48 h; activity change, negative = growth inhibition: at 46.2 µM (top of the series) unless noted
Procedure, shortened: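 Luminescent ATP content (CellTiter-Glo) served as the growth readout. Knockout chicken DT40 cells expressing human TDP1 were exposed to compounds without camptothecin for a minimum 48 hr at 37 °C.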
% is scaled to controls: 0 for no effect and ±100 for the full control effect; potency is read from the fitted curve at half-maximal effect; tags tell the direction and shape of the fitted curve.

Q: Which Potency does the source give for CC(C)(C)n1cnc2cc(NCc3ccccc3Cl)ccc21 here?
A: Its Potency is active: 14.6 µM.

Q: Which Potency does the source give for O=C(CCc1nnc(CCCCc2ccccc2)o1)NCc1cc(F)ccc1F here?
A: The Potency was inconclusive: 29.1 µM [inhibitor, single point].

Q: For CCOc1ccc(NC(=O)CN(C)C(=O)c2cccnc2Sc2ccc(C)c(C)c2)cc1OCC, which “activity change, negative = growth inhibition” value is on record?
A: Its value is inactive: -20.6%.

Q: With COc1ccc(-c2oc3ccc(-c4cc(OC)c(OC)c(OC)c4)cc3c2C#Cc2ccccn2)cc1 as the molecule, how does the Potency read?
A: Its Potency is inconclusive: 18.4 µM [inhibitor, single point].

Q: Which Potency does the source give for CCN(CC)C(=S)SCC(=O)Nc1ccc(F)cc1 here?
A: Its Potency is inconclusive: 29.1 µM [inhibitor, single point].

Q: With CN(C)c1ccc(CNC(=O)C2CCN(S(=O)(=O)c3ccc4c(ccn4C)c3)CC2)cc1 as the molecule, how does the Potency read?
A: Its Potency is inconclusive: 0.651 µM [inhibitor, single point].

Q: With COc1cc2c(cc1OC)CN(Cc1ccc(F)cc1)CC2 as the molecule, how does the Potency read?
A: The Potency was inconclusive: 25.9 µM [inhibitor, single point].

Q: With CCCc1cc(=O)[nH]c(SCC(=O)NN(c2ccccc2)c2ccccc2)n1 as the molecule, how does the Potency read?
A: The Potency was inconclusive: 29.1 µM [inhibitor, partial curve].

Q: For O=C1COc2ccc(S(=O)(=O)Nc3cccc(Cl)c3)cc2N1, which “activity change, negative = growth inhibition” value is on record?
A: Its value is inactive: 2.46%.

Q: For COc1cccc(C(NC(C)=O)c2nc(-c3cccc(C#N)c3)cs2)c1 (stereo not given), which Potency is on record?
A: Its Potency is inconclusive: 23.1 µM [inhibitor, single point].

Q: For COc1ccccc1C(=O)COC(=O)Cn1c(C)csc1=O, which Potency is on record?
A: Its Potency is inconclusive: 8.2 µM [inhibitor, partial curve, poor fit].

Q: With CC(C)(C)NC(=O)NC(=O)COC(=O)CNC(=O)c1cc(Cl)cc([N+](=O)[O-])c1 as the molecule, how does the “activity change, negative = growth inhibition” value read?
A: Its value is inactive: 16.8%.

Q: For CC1CCN(Cc2c(C(=O)N/N=C/c3ccc(C(C)(C)C)cc3)nnn2-c2nonc2N)CC1, which Potency is on record?
A: The Potency was active: 13 µM.

Q: With NS(=O)(=O)c1ccc(NC(=S)N2CCN(C(=O)C3CCCO3)CC2)cc1 (stereo not given) as the molecule, how does the “activity change, negative = growth inhibition” value read?
A: The value was inactive: 17.6%.

Q: With CN(CC(=O)Nc1ccc(F)cc1)C(=O)c1ccc(OCc2cn3ccccc3n2)cc1 as the molecule, how does the Potency read?
A: Its Potency is inconclusive: 25.9 µM [inhibitor, single point].

Q: Which Potency does the source give for O=C(Nc1ccccc1Cl)OC1CCCCC1 here?
A: Its Potency is inconclusive: 20.6 µM [inhibitor, single point].

Q: For CCCNC(=O)c1cc(S(=O)(=O)N2CCCCC2)ccc1N1CCOCC1, which “activity change, negative = growth inhibition” value is on record?
A: The value was inactive: -4.44%.

Q: For Cc1ccc(C)c(Nc2nn3c(=O)c4ccc(C(=O)NCCc5ccccc5)cc4nc3s2)c1, which Potency is on record?
A: Its Potency is active: 8.2 µM.

Q: For COc1ccc2c(CN(Cc3ccccc3)Cc3ccccc3)cc(=O)oc2c1, which Potency is on record?
A: The Potency was inconclusive: 23.1 µM [inhibitor, single point].

Q: For CC[C@H](C)[C@@H](CN[C@H](C)CNC)NCCC(c1ccccc1)c1ccccc1, which Potency is on record?
A: Its Potency is active: 3.66 µM.

Q: Which “activity change, negative = growth inhibition” value does the source give for O=C(NCCc1cccc(C(F)(F)F)c1)C1CCC(=O)N(Cc2ccc(Cl)cc2)C1 (stereo not given) here?
A: The value was inactive: -21.6%.

Q: Which “activity change, negative = growth inhibition” value does the source give for COc1ccc(C(=O)C[n+]2ccc(-c3nnc4n3CCCCC4)cc2)cc1 here?
A: Its value is inactive: -6.21%.

Q: Which activity change, negative = growth inhibition does the source give for COc1cc(CN2C(=O)C(NC(=O)c3ccco3)(C(F)(F)F)C3=C2CC(C)(C)CC3=O)cc(OC)c1 (stereo not given) here?
A: The activity change, negative = growth inhibition was inconclusive: -31% [inhibitor].

Q: With Cc1cc(C)c(-c2noc(C(=O)OC(C)(C)C)c2C(=O)OC(C)(C)C)c(C)c1 as the molecule, how does the Potency read?
A: Its Potency is inconclusive: 14.6 µM [inhibitor, single point].

Q: With Nc1nc(-c2cccnc2)nn1C(=O)CCc1ccccc1 as the molecule, how does the Potency read?
A: Its Potency is inconclusive: 0.259 µM [inhibitor, full curve, poor fit].

Q: For CCc1noc(C)c1C(=O)Nc1ccc(F)c(F)c1, which “activity change, negative = growth inhibition” value is on record?
A: Its value is inactive: 12.1%.

Q: For Cc1ccc(N2CCN(C(=O)c3c4c(nc5ccccc35)C(=O)N(C3CCCCC3)C4)CC2)c(C)c1, which Potency is on record?
A: Its Potency is active: 10.3 µM.

Q: Which Potency does the source give for C/C(CCN1CCc2nc(-c3ccccc3)c(-c3ccccc3)cc2C1)=N\O[C@@H](C)c1cc(-c2c(C)cc(C)cc2C)no1 here?
A: Its Potency is inconclusive: 23.1 µM [inhibitor, single point].

Q: For CC(=O)N(CCc1ccccc1)Cc1cc2ccc(C)c(C)c2[nH]c1=O, which “activity change, negative = growth inhibition” value is on record?
A: Its value is inactive: -19%.

Q: Which Potency does the source give for Cc1snc(SCc2ccc(F)cc2)c1C#N here?
A: The Potency was inconclusive: 29.1 µM [inhibitor, single point].

Q: With CCOC(=O)N1CCN(S(=O)(=O)c2ccc(OCC)c3ccccc23)CC1 as the molecule, how does the Potency read?
A: The Potency was active: 23.1 µM.

Q: Which Potency does the source give for CCOC(=O)c1ccc(NC(=O)C(CC)Sc2nc3ncccc3o2)cc1 (stereo not given) here?
A: Its Potency is inconclusive: 9.2 µM [inhibitor, partial curve].

Q: For C#CCOCCOCCOCCNc1nc(N2CCOCC2)nc(N2CCN(C(=O)CCCCCCCCCCNC(=O)[C@H](CO)n3cc(CCCSC)nn3)CC2)n1, which Potency is on record?
A: Its Potency is inconclusive: 20.6 µM [inhibitor, single point].

Q: With C/C(Cl)=C\Cn1c(Nc2cccc(C)c2)nc2c1c(=O)n(C)c(=O)n2C as the molecule, how does the Potency read?
A: Its Potency is inconclusive: 18.4 µM [inhibitor, single point].

Q: For Cc1ccc(NC2=C(C(=O)c3ccccc3)N(C)S(=O)(=O)c3ccccc32)cc1, which Potency is on record?
A: Its Potency is active: 25.9 µM.

Q: With COc1ccc(C(=O)NCc2c(C)oc(C)c2C(=O)O)cc1 as the molecule, how does the “activity change, negative = growth inhibition” value read?
A: The value was inactive: 16%.

Q: For COc1ccc(/C=C2\SC(=O)N(CCNC(=O)Cn3[nH]c(=O)c4ccccc4c3=O)C2=O)cc1, which Potency is on record?
A: The Potency was inconclusive: 29.1 µM [inhibitor, single point].

Q: With CN(C)c1ccc2nc3ccc(=[N+](C)C)cc-3sc2c1 as the molecule, how does the Potency read?
A: Its Potency is active: 708 nM and active: 1.5 µM and active: 7.3 nM.

Q: For Cc1ccc(C)c(N2CCN(C(=O)Cn3c(-c4cccs4)cc4ccccc43)CC2)c1, which Potency is on record?
A: The Potency was inconclusive: 18.4 µM [inhibitor, single point].

Q: For Cc1ccc(C(=O)NCCC2=CCCCC2)cc1S(=O)(=O)N1CCCCC1, which Potency is on record?
A: The Potency was inconclusive: 20.6 µM [inhibitor, single point].

Q: Which “activity change, negative = growth inhibition” value does the source give for COc1ccc(-c2cc(=O)n(-c3nc4ccccc4[nH]3)[nH]2)cc1 here?
A: The value was inactive: -78%.

Q: With COc1cc(/C=C/C(=O)N2CCC=CC2=O)cc(OC)c1OC as the molecule, how does the Potency read?
A: Its Potency is active: 2.59 µM and active: 1.84 µM.

Q: For O=c1cc(NCc2ccccc2)[nH]c(=O)[nH]1, which “activity change, negative = growth inhibition” value is on record?
A: The value was inactive: -4.91%.

Q: For CCOC(=O)[C@]12CCCC=C1N(Cc1ccccc1)C(=O)[C@H](CC(=O)N1CCN(C(=O)C3CC3)CC1)C2, which “activity change, negative = growth inhibition” value is on record?
A: The value was inactive: 10.5%.

Q: With N#CCc1c(C#N)c(N)nc(N2CCN(c3ccc(F)cc3)CC2)c1C#N as the molecule, how does the Potency read?
A: Its Potency is inconclusive: 29.1 µM [inhibitor, single point].

Q: With Cc1cnc(-c2nc3ccccc3n2C(C)C(=O)Nc2c(C)cccc2C)cn1 (stereo not given) as the molecule, how does the Potency read?
A: Its Potency is inconclusive: 20.6 µM [inhibitor, single point].

Q: Which “activity change, negative = growth inhibition” value does the source give for COCCCn1c(SCC(=O)NCc2ccccc2)nc2c(sc3ccccc32)c1=O here?
A: Its value is inactive: -16.8%.

Q: With COc1cc2nc(CC(O)c3nc4cc(OC)c(OC)cc4[nH]3)[nH]c2cc1OC (stereo not given) as the molecule, how does the Potency read?
A: Its Potency is active: 6.31 µM.

Q: With CCOC(=O)c1c(C)oc2cc(Br)c(OC(C)C(=O)OCC)cc12 (stereo not given) as the molecule, how does the Potency read?
A: The Potency was inconclusive: 25.9 µM [inhibitor, single point].

Q: Which Potency does the source give for Cc1ccc(S(=O)(=O)N/N=C/c2cc(Br)c(C)o2)cc1 here?
A: Its Potency is inconclusive: 29.1 µM [inhibitor, single point].

Q: With O=C1C=C(NC2CCCC2)CC(c2ccccc2)C1 (stereo not given) as the molecule, how does the Potency read?
A: Its Potency is inconclusive: 18.4 µM [inhibitor, single point].

Q: Which Potency does the source give for CC1=CC2(C)C(C3C(C)=CC2(C)C(=O)C3(C)O)C(C)(O)C1=O (stereo not given) here?
A: The Potency was inconclusive: 0.164 µM [inhibitor, full curve, poor fit].

Q: With Cn1cnc(CCNC(=O)C[C@H]2CC[C@@H]3[C@H](COC[C@H](O)CN3C(=O)C3CCCC3)O2)c1 as the molecule, how does the “activity change, negative = growth inhibition” value read?
A: Its value is inactive: 16.8%.

Q: With Cc1ccc(S(=O)(=O)Nc2nc(-c3ccccc3)cs2)cc1 as the molecule, how does the “activity change, negative = growth inhibition” value read?
A: The value was inactive: -5.56%.

Q: With COc1ccc(NC(=S)N2CCN(C/C=C/c3ccccc3)CC2)c(OC)c1 as the molecule, how does the Potency read?
A: Its Potency is inconclusive: 29.1 µM [inhibitor, single point].

Q: For O=C(NCc1cccnc1)c1cc(C2CCCN(S(=O)(=O)c3ccccc3)C2)on1 (stereo not given), which “activity change, negative = growth inhibition” value is on record?
A: Its value is inactive: -24.5%.

Q: Which Potency does the source give for CCCn1c(NCc2ccc3c(c2)OCO3)nc2ccccc21 here?
A: Its Potency is inconclusive: 23.1 µM [inhibitor, single point].

Q: With COc1cccc(S(=O)(=O)Nc2ccc(C(=O)N3CCCCCC3)cc2)c1 as the molecule, how does the Potency read?
A: Its Potency is inconclusive: 29.1 µM [inhibitor, single point].

Q: Which Potency does the source give for Cc1ccc(-n2ncc3c(N4CCN(CCO)CC4)ncnc32)cc1Cl here?
A: The Potency was inconclusive: 29.1 µM [inhibitor, single point].

Q: For Cc1ccc(NC(=O)CSc2ccccc2NC(=O)c2cccc(Cl)c2)cc1Cl, which “activity change, negative = growth inhibition” value is on record?
A: Its value is inactive: -60.7%.

Q: For CCOCC(=O)Nc1sc2c(c1C(=O)OCC)CCCC2, which Potency is on record?
A: The Potency was inconclusive: 29.1 µM [inhibitor, single point].

Q: For CC(C)CCC1(CCNC(=O)c2cccs2)CCOC(C)(C)C1 (stereo not given), which Potency is on record?
A: Its Potency is inconclusive: 29.1 µM [inhibitor, single point].

Q: Which Potency does the source give for COC(=O)C1N[C@@H]([C@@H](NC(=O)COc2ccccc2)C(=O)NCc2ccsc2)SC1(C)C (stereo not given in full) here?
A: Its Potency is “inactive and inconclusive: 29.1 µM [inhibitor, single point]”.

Q: For O=C(Nc1ccc(Cc2ccncc2)cc1)c1cc([N+](=O)[O-])ccc1N1CCOCC1, which Potency is on record?
A: The Potency was inconclusive: 13 µM [inhibitor, partial curve].

Q: With Cc1ccc(-n2c(SCC(=O)Nc3ccc4c(c3)OCO4)nc3c([nH]c4ccccc43)c2=O)cc1 as the molecule, how does the activity change, negative = growth inhibition read?
A: Its activity change, negative = growth inhibition is inconclusive: -30.1% [inhibitor].

Q: For O=C1N=c2ccccc2=C1c1sc(Nc2ccc(O)cc2)nc1O, which “activity change, negative = growth inhibition” value is on record?
A: Its value is inactive: -18.4%.

Q: For O=C(Nc1ccc2c(c1)ncn2-c1ccccc1)c1ccco1, which “activity change, negative = growth inhibition” value is on record?
A: Its value is inactive: -21.6%.

Q: For Cc1ccc(S(=O)(=O)Nc2ncc(C(F)(F)F)cc2Cl)cc1, which “activity change, negative = growth inhibition” value is on record?
A: Its value is inactive: -8.21%.

Q: For Cc1ccc(NC(=O)C(C)OC(=O)COc2cccc(C(F)(F)F)c2)cc1 (stereo not given), which “activity change, negative = growth inhibition” value is on record?
A: The value was inactive: 2.3%.

Q: With COc1cc(NC(=O)c2ccc([N+](=O)[O-])cc2)c(OC)cc1NC(=O)CC(C)C as the molecule, how does the “activity change, negative = growth inhibition” value read?
A: The value was inactive: 10.8%.
